Results reported in patent EP1214397B1, “METHOD FOR THE SELECTIVE PROTECTION OF PROLIFERATING NORMAL CELLS AND THE SELECTIVE ERADICATION OF TUMOR CELLS HAVING AN INACTIVE P53 PATHWAY” (UNIVERSITA' DEGLI STUDI DI ROMA "LA SAPIENZA", priority 1999, dated 2001).

How the values were obtained:
[1] = test system: C3H10T1/2v-src/v-myc cells; format: cell-based, mouse; conditions: 4µCi/ml tritiated thymidine 5 h after 24 h drug (3000 nM CB, 400 nM CD, 650 nM Latrunculin B, 700 nM Jasplakinolide, 100 nM Condramide); control 505 cpm/µg
Text: In order to verify a possible interference on 3FT uptake by tumor cells, the compounds mentioned in example 7 have been assayed on C3H10T1/2v-src/v-myc cells, measuring the uptake of tritiated thymidine. It is well known in fact that the uptake mechanism of the latter and that of 3FT (and generally of antimetabolites) are the same (6).
Cells have been plated in a 24-well plate, with a 5x10^4 cells/well and the assays have been carried out under standard culture conditions, as described in example 1.
In a first assay 3000 nM CB for 24 h, in a second assay 400 nM CD for 24 h, in a third assays 650 nM Latrunculin B for 24 h, in a fourth assay 700 nM Jasplakinolide for 24 h and in a fifth assay 100 nM Condramide for 24 h, have been administered on the C3H10T1/2v-src/v-myc.
After said administrations, a 4µCi/ml tritiated Thymidine uptake has been carried out for 5 h for each assay, the above mentioned compounds being still present. Cells have been therefore washed 2x with PBS, extracted with 5% cold trichloroacetic acid and subsequently NaOH-lysed.
The various samples once additioned with scintillation liquid, have been analyzed in a β-counter. The emission values, normalized for the amount of proteins in each sample (quantified by Lowry method) are expressed in count values for min/microgram protein in column 3. As controls there have been considered: • a first C3H10T1/2v-src/v-myc cell culture let free to proliferate for the overall assay (12 h + 24 h + 5 h) the radioactivity thereof being determined at the β-counter. • a second C3H10T1/2v-src-myc cell culture let free to proliferate for the initial 12 h and for the pharmacological treatment assay (12 h + 24 h), then subjected to the uptake of 4µCi/ml tritiated thymidine for 5 h and subsequently subjected to uptake determination at the β-counter.

[2] = test system: Lipari, T97 and U973 glioblastomas; assay: Nucleation state of human tumor cells after class A compounds (Example 12); format: cell-based; conditions: 48 h; 400 nM cytochalasin D, 650 nM Latrunculin B, 700 nM Jasplakinolide, 100 nM Chondramide B
Description: All the assays above described, have been carried out in a system specifically designed to reproduce pathological situations in human beings in vivo.
Culture and experimental conditions are identical to those reported in example 1, except in that the cells used were Lipari, T97 and U973 glioblastomas and that nucleation state data were observed after the following treatments.
In a first assay series, 400 nM cytochalasin D for 48 h (T0-T48), along with BrdU (T24-48) in the final 24 h for controlling the percentage of cells capable of entering S phase, has been administered to Lipari, T97 and U973 cells.
In a second assay series, 650 nM Latrunculin B for 48 h (T0-T48) along with BrdU (T24-48) in the final 24 h for controlling the percentage of cells capable of entering S phase, has been administered to Lipari (Line 11), T97 (Line 12) and U973 (Line 13) cells.
In a third assay series, 700 nM Jasplakinolide for 48 h (T0-T48), along with BrdU (T24-48) in the final 24 h for controlling the percentage of cells capable of entering S phase, has been administered to Lipari (Line 14), T97 (Line 15) and U973 (Line 16) cells.
In a fourth assay series, 100 nM Chondramide B for 48 h (T0-T48), along with BrdU (T24-48) in the final 24 h for controlling the percentage of cells capable of entering S phase, has been administered to Lipari (Line 17), T97 (Line 18) and U973 (Line 19) cells.

[3] = test system: normal cells; assay: Dose/response: concentration arresting normal cells in the intermitotic phase (CAP); format: cell-based; conditions: standard conditions
Description: It generally results in cell cycle arrest at the binucleate stage in at least 40% of class A compounds treated proliferating normal cells, using the minimal drug concentration (i.e. sufficient to reversible induce its effects, on target cells, without causing significant damage, experimentally defined by dose/response curves), giving the above result without significant toxicity and an incubation time generally ranging from 12 to 48 hours depending on cell type.
As to the CAP parameter, the corresponding value is a class A compound concentration causing the arrest of at least the 40% of normal cells in the intermitotic stage; such concentration is experimental deduced by dose/response experiments that define the appropriate value range for different cell types and compounds.
For the above class A compounds, under standard conditions this value ranges within 1 nM to 40 µM concentrations.. Under standard conditions for instance, the CAP value for cytochalasin D is preferably comprised within the range 20 nM-2 µM, and in a preferred embodiment it is of 400 nM.; for the dihydrocytochalasin B, it is comprised in the range 600 nM - 8µM, and in a preferred embodiment it is of 2µM; for the jasplakinolide, it is comprised in the range 50 nM - 3µM and in a preferred embodiment it is of 700nM; for the latrunculin B it is comprised in the range 500nM - 2 µM and in a preferred embodiment it is of 650nM; for the chondramide B, it is comprised in the range 10 - 800 nM and in a preferred embodiment it is of 100nM. Said preferred concentrations are the CAP value corresponding to the minimum concentration under standard conditions required for reaching the arrest in intermitotic phase of the normal cells to be protected (minimum functional concentration), but could also be higher.
In the light of these tests, the CAP and CACT values to be assigned to several class A compounds as the concentration range yielding the cytodieresis arrest, and, within said concentration range, the value of the minimum concentration required for attaining this effect, forming the preferred embodiment, has been determined. These values are those reported in the summary of the invention.

In the case of CO[C@@H]1C(=O)O[C@H](C)[C@@H](C)C=C(C)C[C@H](C)C(=O)N[C@@H](C)C(=O)N(C)[C@H](Cc2c(Cl)[nH]c3ccccc23)C(=O)NC1c1ccc(O)cc1 (stereo partly drawn) [Chondramide B], the “tritiated thymidine uptake, emission values” [1] is reported as 562 cpm/µg, the “multinucleation of human tumor cells” value [2] is reported as “induces multinucleation of tumor cells” and the “CAP, minimum functional concentration for arrest in intermitotic phase of normal cells” value [3] is reported as 100 nM.
